Measurements taken from the supplement of paper PMC8728848.
Some of the results follow.

Columns and labels:
Test in all cases: glycan array binding signal (z-score within array); higher = stronger binding
Settings in all cases: glycan notation: IUPAC condensed, linker removed; mutation: R349A
[1] = target: Neu5Ac(a2-3)Gal6S(b1-4)[Fuc(a1-3)]GlcNAc
Outline: (§1)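 Glycan array data were curated from 3228 arrays in the Consortium for Functional Glycomics database and kept only where the protein sequence was available. Glycan names were converted to IUPAC-condensed notation, and columns mapping to the same glycan were averaged. The binding signal is a within-array Z-score, averaged across arrays of the same protein sequence at different concentrations or buffers and across linkers. Negative Z-scores can be read as non-binding.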

Neu5Ac(a2-3)GalNAc = target: Neu5Ac(a2-3)GalNAc
Outline: as §1

[2] = target: Neu5Ac(a2-3)GalNAc(b1-4)GlcNAc
Outline: as §1

[3] = target: Neu5Ac(a2-3)[GalNAc(b1-4)]Gal(b1-4)Glc
Outline: as §1

[4] = target: Neu5Ac(a2-3)[GalNAc(b1-4)]Gal(b1-4)GlcNAc
Outline: as §1

[5] = target: Neu5Ac(a2-3)[Neu5Ac(a2-6)]GalNAc
Outline: as §1

Neu5Ac(a2-6)Gal = target: Neu5Ac(a2-6)Gal
Outline: as §1

Neu5Ac(a2-6)Gal(b1-4)Glc = target: Neu5Ac(a2-6)Gal(b1-4)Glc
Outline: as §1

[6] = target: Neu5Ac(a2-6)Gal(b1-4)GlcNAc
Outline: as §1

[7] = target: Neu5Ac(a2-6)Gal(b1-4)GlcNAc(b1-2)Man(a1-3)[Gal(b1-4)GlcNAc(b1-2)Man(a1-6)]Man(b1-4)GlcNAc(b1-4)GlcNAc
Outline: as §1

[8] = target: Neu5Ac(a2-6)Gal(b1-4)GlcNAc(b1-2)Man(a1-3)[GlcNAc(b1-2)Man(a1-6)]Man(b1-4)GlcNAc(b1-4)GlcNAc
Outline: as §1

[9] = target: Neu5Ac(a2-6)Gal(b1-4)GlcNAc(b1-2)Man(a1-3)[GlcNAc(b1-2)Man(b1-4)GlcNAc(b1-2)Man(a1-6)]Man(b1-4)GlcNAc(b1-4)GlcNAc
Outline: as §1

[10] = target: Neu5Ac(a2-6)Gal(b1-4)GlcNAc(b1-2)Man(a1-3)[Neu5Ac(a2-6)Gal(b1-4)GlcNAc(b1-2)Man(a1-6)]Man(b1-4)GlcNAc(b1-4)GlcNAc
Outline: as §1

[11] = target: Neu5Ac(a2-6)Gal(b1-4)GlcNAc(b1-2)Man(a1-6)[Gal(b1-4)GlcNAc(b1-2)Man(a1-3)]Man(b1-4)GlcNAc(b1-4)GlcNAc
Outline: as §1

[12] = target: Neu5Ac(a2-6)Gal(b1-4)GlcNAc(b1-2)Man(a1-6)[GlcNAc(b1-2)Man(a1-3)]Man(b1-4)GlcNAc(b1-4)GlcNAc
Outline: as §1

[13] = target: Neu5Ac(a2-6)Gal(b1-4)GlcNAc(b1-3)Gal(b1-4)GlcNAc
Outline: as §1

[14] = target: Neu5Ac(a2-6)Gal(b1-4)GlcNAc(b1-3)Gal(b1-4)[Fuc(a1-3)]GlcNAc(b1-3)Gal(b1-4)[Fuc(a1-3)]GlcNAc
Outline: as §1

[15] = target: Neu5Ac(a2-6)Gal(b1-4)GlcNAc6S
Outline: as §1

Neu5Ac(a2-6)GalNAc = target: Neu5Ac(a2-6)GalNAc
Outline: as §1

[16] = target: Neu5Ac(a2-6)GalNAc(b1-4)GlcNAc
Outline: as §1

Neu5Ac(a2-8)Neu5Ac = target: Neu5Ac(a2-8)Neu5Ac
Outline: as §1

[17] = target: Neu5Ac(a2-8)Neu5Ac(a2-3)Gal(b1-4)Glc
Outline: as §1

[18] = target: Neu5Ac(a2-8)Neu5Ac(a2-3)[GalNAc(b1-4)]Gal(b1-4)Glc
Outline: as §1

[19] = target: Neu5Ac(a2-8)Neu5Ac(a2-8)Neu5Ac
Outline: as §1

[20] = target: Neu5Ac(a2-8)Neu5Ac(a2-8)Neu5Ac(a2-3)Gal(b1-4)Glc
Outline: as §1

[21] = target: Neu5Ac(a2-8)Neu5Ac(a2-8)Neu5Ac(a2-3)[GalNAc(b1-4)]Gal(b1-4)Glc
Outline: as §1

[22] = target: Neu5Ac(a2-8)Neu5Ac(a2-8)Neu5Ac(a2-8)Neu5Ac(a2-3)[GalNAc(b1-4)]Gal(b1-4)Glc
Outline: as §1

[23] = target: Neu5Ac(b2-6)Gal(b1-4)GlcNAc
Outline: as §1

Neu5Ac(b2-6)GalNAc = target: Neu5Ac(b2-6)GalNAc
Outline: as §1

[24] = target: Neu5Ac9Ac(a2-6)Gal(b1-4)GlcNAc
Outline: as §1

[25] = target: Neu5Gc(a2-3)Gal(b1-3)GlcNAc
Outline: as §1

[26] = target: Neu5Gc(a2-3)Gal(b1-3)[Fuc(a1-4)]GlcNAc
Outline: as §1

Neu5Gc(a2-3)Gal(b1-4)Glc = target: Neu5Gc(a2-3)Gal(b1-4)Glc
Outline: as §1

[27] = target: Neu5Gc(a2-3)Gal(b1-4)GlcNAc
Outline: as §1

[28] = target: Neu5Gc(a2-3)Gal(b1-4)[Fuc(a1-3)]GlcNAc
Outline: as §1

[29] = target: Neu5Gc(a2-6)Gal(b1-4)GlcNAc
Outline: as §1

Neu5Gc(a2-6)GalNAc = target: Neu5Gc(a2-6)GalNAc
Outline: as §1

[30] = target: Neu5Gc(b2-6)Gal(b1-4)GlcNAc
Outline: as §1

B1: Surfactant Protein D (Human); Neck + Carbohydrate Recognition Domain (NCRD) (Homo sapiens) (protein)
chain: MLLFLLSALVLLTQPLGYLEAEMKTYSHRTMPSACTLVMCSSVESGLPGRDRDGREGPRGEKGDPGLPGAAGQAGMPGQAGPVGPKGDNGSVGEPGPKGDTGPSGPPGPPGVPGPAGREGALGKQGNIGPQGKPGPKGEAGPKGEVGAPGMQGSAGARGLAGPKGERGVPGERGVPGNTGAAGSAGAMGPQGSPGARGPPGLKGDKGIPGDKGAKGESGLPDVASLRQQVEALQGQVQHLQAAFSQYKKVELFPNGQSVGEKIFKTAQFVKPFTEAQLLCTQAGGQLASPRSAAENAALQQLVVAKNEAAFLSMTDSKTEGKFTYPTGESLVYSNWAPGEPNDDGGSEDCVEIFTNGKWNDRACGEKALVVCEF
glycan array binding signal (z-score) [1]: 0.415
glycan array binding signal (z-score) (Neu5Ac(a2-3)GalNAc): 0.307
glycan array binding signal (z-score) [2]: 0.241
glycan array binding signal (z-score) [3]: -0.131
glycan array binding signal (z-score) [4]: -0.082
glycan array binding signal (z-score) [5]: 0.462
glycan array binding signal (z-score) (Neu5Ac(a2-6)Gal): -0.213
glycan array binding signal (z-score) (Neu5Ac(a2-6)Gal(b1-4)Glc): -0.389
glycan array binding signal (z-score) [6]: -0.381
glycan array binding signal (z-score) [7]: -0.328
glycan array binding signal (z-score) [8]: -0.053
glycan array binding signal (z-score) [9]: 0.302
glycan array binding signal (z-score) [10]: -0.157
glycan array binding signal (z-score) [11]: -0.509
glycan array binding signal (z-score) [12]: 0.085
glycan array binding signal (z-score) [13]: 0.051
glycan array binding signal (z-score) [14]: 0.014
glycan array binding signal (z-score) [15]: 2.51
glycan array binding signal (z-score) (Neu5Ac(a2-6)GalNAc): 0.373
glycan array binding signal (z-score) [16]: 0.044
glycan array binding signal (z-score) (Neu5Ac(a2-8)Neu5Ac): 0.49
glycan array binding signal (z-score) [17]: -0.305
glycan array binding signal (z-score) [18]: 0.052
glycan array binding signal (z-score) [19]: -0.276
glycan array binding signal (z-score) [20]: -0.257
glycan array binding signal (z-score) [21]: -0.579
glycan array binding signal (z-score) [22]: 0.12
glycan array binding signal (z-score) [23]: -0.558
glycan array binding signal (z-score) (Neu5Ac(b2-6)GalNAc): -0.794
glycan array binding signal (z-score) [24]: -0.511
glycan array binding signal (z-score) [25]: -0.261
glycan array binding signal (z-score) [26]: -0.573
glycan array binding signal (z-score) (Neu5Gc(a2-3)Gal(b1-4)Glc): -0.082
glycan array binding signal (z-score) [27]: 0.057
glycan array binding signal (z-score) [28]: -0.422
glycan array binding signal (z-score) [29]: -0.674
glycan array binding signal (z-score) (Neu5Gc(a2-6)GalNAc): -0.534
glycan array binding signal (z-score) [30]: -0.506
